In PubChem BioAssay AID504332 (National Center for Advancing Translational Sciences (NCATS), 2011):
About 31,000 (8.9%) of roughly 350,000 compounds were called active. Inconclusive results, whose numbers are uncertain, are shown with a selection of clear calls. Calls follow the shape of the dose curve; as a rule, active = well fitted inhibition curve with a large enough effect; inconclusive = small, poorly fitted or top-dose-only effect; inactive = no such curve, though single readings can be large or run the other way. Potencies of inconclusive entries are doubtful fits and often do not repeat.

Target: Histone-lysine N-methyltransferase EHMT2 (Homo sapiens) (UniProt Q96KQ7)
Assay: qHTS Assay for Inhibitors of Histone Lysine Methyltransferase G9a; also: nearly all actives have a fitted effect of over 75% in size
Details: G9a H3K9 monomethylation, AlphaScreen, 2 h; activity, negative = inhibition: at 59 µM (top of the series) unless noted
Method in brief: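 Using a bead-based AlphaScreen, monomethylated H3K9 product from 2 h room-temperature reactions (G9a 20 nM, peptide 500 nM, SAM 20 uM) was detected with 0.5 ug/mL rabbit anti-H3K9me1 antibody.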
% is scaled to controls: 0 for no effect and ±100 for the full control effect; potency is read from the fitted curve at half-maximal effect; tags tell the direction and shape of the fitted curve.

UniProt Q96KQ7, sequence (Q96KQ7 whole entry, looked up): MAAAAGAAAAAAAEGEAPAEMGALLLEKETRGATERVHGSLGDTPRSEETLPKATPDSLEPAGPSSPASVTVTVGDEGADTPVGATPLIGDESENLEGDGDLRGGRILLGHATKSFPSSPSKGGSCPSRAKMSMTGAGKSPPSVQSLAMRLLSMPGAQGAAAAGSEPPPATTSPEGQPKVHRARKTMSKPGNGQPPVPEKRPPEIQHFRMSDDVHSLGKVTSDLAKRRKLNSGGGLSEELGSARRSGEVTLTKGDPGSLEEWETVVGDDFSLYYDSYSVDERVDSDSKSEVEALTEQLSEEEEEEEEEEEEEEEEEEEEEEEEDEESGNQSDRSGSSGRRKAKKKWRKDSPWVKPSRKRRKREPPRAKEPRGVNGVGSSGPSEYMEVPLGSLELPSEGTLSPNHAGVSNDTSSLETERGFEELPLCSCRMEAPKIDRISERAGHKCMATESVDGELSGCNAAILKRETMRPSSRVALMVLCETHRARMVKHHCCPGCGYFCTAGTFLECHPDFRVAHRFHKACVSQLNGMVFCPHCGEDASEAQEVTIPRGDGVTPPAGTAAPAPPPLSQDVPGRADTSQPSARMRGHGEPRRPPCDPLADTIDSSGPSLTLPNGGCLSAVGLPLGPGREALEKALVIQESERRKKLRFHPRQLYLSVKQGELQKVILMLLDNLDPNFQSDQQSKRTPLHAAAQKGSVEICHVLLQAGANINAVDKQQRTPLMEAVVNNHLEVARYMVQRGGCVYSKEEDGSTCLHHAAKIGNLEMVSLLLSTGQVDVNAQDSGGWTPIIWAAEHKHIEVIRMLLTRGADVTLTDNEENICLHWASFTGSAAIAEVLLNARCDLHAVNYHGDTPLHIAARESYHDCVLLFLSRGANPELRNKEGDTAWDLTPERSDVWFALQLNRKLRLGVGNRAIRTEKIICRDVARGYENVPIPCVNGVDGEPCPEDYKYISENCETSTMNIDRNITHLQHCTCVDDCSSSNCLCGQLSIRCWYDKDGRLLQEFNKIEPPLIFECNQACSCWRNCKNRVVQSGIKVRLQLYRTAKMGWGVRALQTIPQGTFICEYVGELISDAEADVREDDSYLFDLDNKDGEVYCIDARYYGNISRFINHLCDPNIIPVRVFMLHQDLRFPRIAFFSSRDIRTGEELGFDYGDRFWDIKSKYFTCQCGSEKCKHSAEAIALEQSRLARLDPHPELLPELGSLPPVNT

SMILES | Potency | activity, negative = inhibition
Oc1ccc(CN2CCCCC2)c2cccnc12 | inconclusive: 39.8 µM [inhibitor, single point] | 
CCOC(=O)C(NC(=O)CC)(Nc1sc(C)c(CC)c1C#N)C(F)(F)F (configuration not stated) | inconclusive: 25.1 µM [inhibitor, single point] | 
O=[N+]([O-])c1cc([N+](=O)[O-])c2cccnc2c1Oc1ccccc1O | active: 3.16 µM | 
Cn1nc(C(=O)Nc2ccccc2N2CCCC2)c2ccccc2c1=O | inconclusive: 39.8 µM [inhibitor, partial curve, poor fit] | 
C/C(=N\NC(=O)CSCc1ccccc1Br)c1cccc([N+](=O)[O-])c1 | inconclusive: 0.708 µM [inhibitor, full curve, poor fit] | 
CS(=O)(=O)N1CCCc2cc(C(=O)Nc3cccc(C(F)(F)F)c3)ccc21 | inactive | 
CCn1c(=O)c(C(=O)NCc2cccnc2)c(O)c2ccccc21 | inactive | 
Cc1onc(-c2ccccc2)c1C(=O)N(Cc1ccco1)Cc1cccs1 | inconclusive: 50.1 µM [inhibitor, partial curve, poor fit] | 
CCn1c(CNc2ccc(OC)cc2)nnc1SCC(=O)Nc1ccc(F)cc1 | inconclusive: 39.8 µM [inhibitor, single point] | 
C=CCOc1ccc(CNc2ccc(NC(=O)CC(C)C)cc2)cc1OC | active: 70.8 µM | 
Cn1c(=O)n(C)c2cc(S(=O)(=O)NCCOCCO)ccc21 |  | inactive: -11.8% [at 12.7 µM]
Cc1ccc(C(=O)Nc2ccc3cn[nH]c3c2)cc1S(=O)(=O)N1CCCCC1 | inconclusive: 31.6 µM [inhibitor, single point] | 
O=C(OC(C(=O)NCc1cccs1)c1ccccn1)c1cccs1 (configuration not stated) | inconclusive: 44.7 µM [inhibitor, partial curve, poor fit] | 
CC(=O)Nc1ccc(C(=O)Cn2nnc3ccccc3c2=O)cc1 | inconclusive: 3.16 µM [inhibitor, partial curve, poor fit] | 
Cc1cccc(-c2n[nH]c(=S)n2/N=C/c2ccc(C)s2)c1 | active: 1.12 µM | 
CC(C)NC(=O)c1onc(CSc2ccc(Cl)cc2)c1C(=O)O |  | inactive: 28.7% [at 0.501 µM]
COc1cc(-c2nc(-c3cccc(Cl)c3)c(-c3ccccc3)[nH]2)cc(OC)c1OC | inactive | 
CCN(CC)C(=O)Cn1cc(/C=C(\C#N)C(=O)N2CCN(c3ccccc3)CC2)c2ccccc21 | inconclusive: 5.01 µM [inhibitor, partial curve, poor fit] | 
COc1ccc(N(CC(=O)NCc2ccco2)S(=O)(=O)c2ccccc2)cc1 | inconclusive: 70.8 µM [inhibitor, partial curve, poor fit] | 
CCOc1cc(C2C3=C(CCCC3=O)N(CC(=O)O)C3=C2C(=O)CCC3)ccc1OC | inconclusive: 44.7 µM [inhibitor, partial curve, poor fit] | 
CSc1ccc(Cl)c(C(=O)N(C)CC(=O)Nc2ccc(N3CCOCC3)cc2)c1 | active: 35.5 µM | 
CCN1CCN(C(=O)c2ccc3c(=O)n(Cc4ccccc4OC)c(=S)[nH]c3c2)CC1 | inconclusive: 44.7 µM [inhibitor, partial curve, poor fit] | 
O=[N+]([O-])c1cccc(C(=S)N2CCN(c3ccc(F)cc3)CC2)c1 | active: 10 µM | 

SMILES | Potency | activity, negative = inhibition
O=c1c2cn[nH]c2[nH]c(=S)n1-c1ccccc1F | active: 8.91 µM | 
CC(=O)c1ccc(S(=O)(=O)NC2CC(=O)N(c3ccc(Cl)cc3)C2)cc1 (configuration not stated) | inconclusive: 35.5 µM [inhibitor, partial curve, poor fit] | 
CNC(=O)[C@H]1O[C@@H](n2cnc3c(N)ncnc32)[C@H](O)[C@H]1O | active: 3.16 µM | 
CCCC(C)NC(=O)c1ccc(-c2ccccc2)cc1 (configuration not stated) | inconclusive: 35.5 µM [inhibitor, partial curve, poor fit] | 
C=CCn1c(COc2ccccc2)nnc1SCC(=O)NCC(=O)OCC | inactive | 
CC12CCC(=O)N1C(C(=O)Nc1cccc(F)c1)CS2 (configuration not stated) | inactive | 
CC1(C)C2CCC(C2)C1(C)NC(=O)CNCc1cccs1 (configuration not stated) | active: 11.2 µM | 
Cc1ccc(OCc2ccc(-c3ccccc3)cc2)c([N+](=O)[O-])n1 | inconclusive: 89.1 µM [inhibitor, single point] | 
Cc1oc(-c2cccs2)nc1CS(=O)CC(=O)NC1CCCCCC1 (configuration not stated) | active: 39.8 µM | 
Cc1ccc(CN(C)S(=O)(=O)c2c(C)noc2/C=C/N(C)C)cc1 | inconclusive: 79.4 µM [inhibitor, single point] | 
Cc1cc(C)n(-c2nc3cc(Cl)ccc3nc2Nc2ccc(CC(=O)O)cc2)n1 | inactive | 
COc1ccc(S(=O)(=O)N2CCCCCC2)cc1NC(=O)Cc1n[nH]c(=O)c2ccccc12 | inconclusive: 50.1 µM [inhibitor, partial curve] | 
CCOC(=O)c1ccc(NC(=S)N(CCN(C)C)C(C)c2ccncc2)cc1 (configuration not stated) | inconclusive: 89.1 µM [inhibitor, single point] | 
CN1C(=O)/C(=C/C=C2\SCCN2C)OC1=S | inconclusive: 12.6 µM [inhibitor, full curve] | 
CN(C(=O)COC(=O)C1CCN(S(=O)(=O)c2c(Cl)cccc2Cl)CC1)C1CCS(=O)(=O)C1 (configuration not stated) | inconclusive: 56.2 µM [inhibitor, partial curve] | 
CCN(c1ccccc1)S(=O)(=O)c1ccc(Oc2ccc(-n3ccnc3)cc2)nc1 | inactive | 
CNC(=O)C1CCN(S(=O)(=O)c2c(C)noc2/C=C/N(C)C)CC1 | inactive | 
CC(C)Oc1ccccc1C1Nc2ccccc2C(=O)N1c1ccc2c(c1)OCCO2 (configuration not stated) | inconclusive: 7.94 µM [inhibitor, single point] | 
O=C(OCn1nnc2ccccc2c1=O)c1cc2ccccc2o1 | inconclusive: 1.41 µM [inhibitor, single point] | 
CCC(C)NC(=O)Cn1c(=O)sc2ccccc21 (configuration not stated) | inconclusive: 50.1 µM [inhibitor, partial curve] | 
Cc1cccc(NC(c2ccccc2C)c2ccc3ccc(C)nc3c2O)n1 (configuration not stated) | inconclusive: 31.6 µM [inhibitor, single point] | 
COc1ccc(NC(=S)N2CCNC(=O)C2CC(=O)Nc2cccc(Cl)c2C)cc1 (configuration not stated) | inconclusive: 22.4 µM [inhibitor, partial curve, poor fit] | 
COC(=O)c1c(-c2cccs2)csc1NC(=O)c1ccc(OC)c(OC)c1 | active: 2.82 µM | 

SMILES | Potency | activity, negative = inhibition
Cc1ccc(Nc2nc(N)nc(CN3CCN(c4ccccc4)CC3)n2)cc1Cl | inconclusive: 20 µM [inhibitor, single point] | 
COc1ccc(NC(=O)CSc2nc(N)cc(N)n2)cc1S(=O)(=O)N1CCCCC1 | inconclusive: 8.91 µM [inhibitor, single point] | 
O=[N+]([O-])c1cccnc1N1CCC(c2cc(-c3cccc(C(F)(F)F)c3)n[nH]2)CC1 | inconclusive: 28.2 µM [inhibitor, single point] | 
CCc1ccc2[nH]c(C(=O)Nc3ccc(Br)c(C)n3)cc2c1 | active: 44.7 µM | 
CCOC(=O)C1(O)CSc2nc3sc(C(=O)O)c(C)c3c(=O)n21 (configuration not stated) | inconclusive: 15.8 µM [inhibitor, partial curve, poor fit] | 
Cc1nnc(SCC2=C(C(=O)O)N3C(=O)C(NC(=O)Cn4nc(C)c(Cl)c4C)C3SC2)s1 (configuration not stated) | active: 31.6 µM | 
CCOC(=O)Nc1ccc2c(CN(C)Cc3ccc(F)cc3)cc(=O)oc2c1 | inconclusive: 89.1 µM [inhibitor, single point] | 
COc1ccc(N2CCN(C(=O)CSc3nnnn3C3CC3)CC2)cc1 | inconclusive: 35.5 µM [inhibitor, single point] | 
O=C(CSc1nnnn1Cc1ccccc1)NCC(=O)c1ccccc1 |  | inactive: 4.49% [at 12.7 µM]
NNC(=O)c1ccc(CSc2n[nH]c(=O)[nH]c2=O)cc1 | active: 3.98 µM | 
O=S(=O)(c1ccccc1)c1nc(-c2cccs2)oc1NCCCn1ccnc1 |  | inactive: -1.17% [at 12.7 µM]
COc1ccc(F)cc1C(=O)C1CCCN(C(=O)c2cccc(N(C)C)c2)C1 (configuration not stated) | inconclusive: 44.7 µM [inhibitor, partial curve] | 
COc1ccc(C(=O)c2c(N)sc3c2CCN(C(=O)OC(C)(C)C)C3)cc1 |  | inconclusive: -101% [inhibitor]
COC(=O)CCC(NC(=O)c1cc(-c2ccc3c(c2)OCCO3)oc1C)C(=O)OC (configuration not stated) | inconclusive: 50.1 µM [inhibitor, partial curve, poor fit] | 
CCn1c2ccccc2c2cc(CNCCCN3CCOCC3)ccc21 | inconclusive: 70.8 µM [inhibitor, partial curve] | 
Cc1cccc(OCC(O)Cn2c(=N)n(CCN3CCCCC3)c3ccccc32)c1 (configuration not stated) | inconclusive: 31.6 µM [inhibitor, partial curve] | 
N=C(N)N=Nc1c(O)[nH]c2ccc(Br)cc12 | inconclusive: 50.1 µM [inhibitor, partial curve] | 
Cc1cccn2c(=O)c(C=O)c(N3CCN(c4ccccc4)CC3)nc12 |  | inconclusive: -61.2% [inhibitor]
COc1ccc(-n2nc(C(=O)N3CCN(c4ccc(F)cc4)CC3)c3ccccc3c2=O)c(OC)c1 | inconclusive: 2.24 µM [inhibitor, partial curve, poor fit] | 
O=C(CSc1n[nH]c(-c2ccccc2)n1)Nc1ncccn1 | inconclusive: 1 µM [inhibitor, full curve, poor fit] | 
Nc1nncn1C(=O)c1ccc(Cl)cc1Cl | inactive | 
